# Source: ChEMBL document CHEMBL4888484, “Replenishing the malaria drug discovery pipeline: Screening and hit evaluation of the MMV Hit Generation Library 1 (HGL1) against asexual blood stage Plasmodium falciparum ,using a nano luciferase reporter read-out” (2022)
# Hit rate of the full screen: of about 150,000 compounds, about 540 (0.36%) showed an effect of 50% or more. This is one part of the list.
# System: Plasmodium falciparum
# Assay: Primary screen in NF54 nanoGlo assay, in single point, at 2uM, 72h; a lower Z score goes with more inhibition
# Format: functional, Erythrocyte
# Conditions: timepoint 72 hour
SMILES,% Inhibition,Z score
CCC(CC)(CO)CN(C)Cc1cccc(F)c1C(F)(F)F,-1%,0.14
CCOCc1nc(C)cc(-n2ccnc2)n1,-10%,1.95
CC[C@H](NC(=O)c1occc1C(C)C)C1CCOCC1,-15%,2.66
C[C@H](Oc1cc(Cl)cc(Cl)c1)C(=O)N1CCNC(=O)CC1,-8%,1.14
CCc1oc(C(=O)O)cc1CN1CC[C@@](O)(Cc2ccc(F)cc2)C1,-8%,1.14
CC(C)CCOC1CCN(C(=O)C2CC(=O)N(C)C2)C1 (configuration not stated),0%,-0.01
N[C@@H](CNc1ncc(Br)cc1Cl)C1CC1,4%,-0.61
CC(NC(=O)c1cc2ccccc2cc1O)C1CCCOC1 (configuration not stated),-2%,0.22
COc1cccc(S(=O)(=O)N2CCN(Cc3nc(-c4cccc(Cl)c4)oc3C)CC2)c1,-6%,0.83
O=C(N[C@H]1CC(=O)N(c2ccc3c(c2)OCCO3)C1)C1CCCC1,-13%,2.38
COc1c(Cl)cc(NC(=O)N[C@@]2(C)CCOC2)cc1Cl,0%,0
O=C(N[C@@]1(C(F)(F)F)N=C(c2ccccc2)N(C2CCCCC2)C1=O)C1CCCCC1,-4%,0.46
CCN1CC(CN(C)C(=O)[C@@H]2CCCN2C(C)=O)Oc2ccccc21 (some centres not stated),1%,-0.17
CN1CC2(CCN(C(=O)c3cnc[nH]c3=O)CC2)C[C@@H](c2ccccc2)C1=O,-8%,0.97
CC(C)(NC(=O)c1ccsc1)c1nc2c(c(C(N)=O)n1)OCCO2,-4%,0.58
Cc1noc(-c2c(C)[nH]c(C)c2S(=O)(=O)Nc2ccc(F)c(C)c2)n1,-12%,2.41
O=C(NCCCN1CCCC1=O)c1ccc2nc(-c3ccc(F)cc3)c(-c3ccc(F)cc3)nc2c1,-14%,1.61
C[C@H](NC(=O)N(C)[C@@H]1CCC[C@H]1O)c1ccc(F)cc1Cl,5%,-0.67
CC1(C)CCCC[C@@H]1NCc1cn(C(C)(C)C)nn1,12%,-1.56
Cc1cccc2cc(C(=O)N3C[C@H]4CC[C@@H](C3)N(CC3CCC3)C4=O)oc12,-25%,2.34
O=C(CNc1ccccc1Oc1ccccc1)N1CCN(c2ccccc2)CC1,-10%,2

SMILES,% Inhibition,Z score
O=S(=O)(Cc1cc(F)ccc1Cl)NCCN1CCCC[C@@H]1CO,0%,0.05
CC(OCC(F)(F)F)C(=O)NC1CCS(=O)(=O)C1 (configuration not stated),-8%,1.57
CC(=O)c1[nH]c(C)c(C(=O)N2CCC(O)(c3cccc(C(F)(F)F)c3)CC2)c1C,-15%,2
CCc1nn(C)c(CC)c1CN1CC[C@H](c2nccn2C)C1,-2%,0.19
O=C(NCc1nnc2n1CCC2)N1CCOCC1CC(O)c1cccs1 (configuration not stated),-9%,0.97
CCOC(=O)[C@H](CNC(=O)CCC1CCCC1)Cc1ccccc1,-6%,0.94
Cc1cccc(N2CCN(C(=O)CCc3nc(CS(=O)(=O)c4ccccc4)no3)C[C@@H]2C)c1,5%,-0.93
Cc1cc(C(C)C(=O)NC2CCN(C)C2=O)c(C)o1 (configuration not stated),-11%,1.91
COc1nc2c(cc1CN[C@@H](C)CO)C(=O)N(C1CCCC1)C2,1%,-0.08
O=C(Nc1ccc(Oc2ccc3ccccc3c2Cl)c(Cl)c1)c1cc(Cl)ccc1O,28%,-3.13
O=C1CCCc2nc3[nH]n(-c4ccccc4)c(=O)c3cc21,32%,-4.62
CCOc1ccc(C2C(C(=O)N3CCN(c4ccccc4F)CC3)c3ccccc3C(=O)N2CCN2CCOCC2)cc1 (configuration not stated),-13%,1.96
CC1(N2CCOCC2)CCN(S(=O)(=O)c2cncc(C#N)c2)CC1,2%,-0.42
COc1cc(CNC(=O)c2cc(Cc3ccccc3)n[nH]2)ccc1C,5%,-0.59
O=C(N[C@H]1CCN(c2ccc(C(F)(F)F)cn2)C[C@@H]1O)c1cnccn1,-16%,2.78
CCn1cnc2c(N3CC(c4nc(-c5ccccc5)no4)C3)ncnc21,0%,-0.01
CCN1C[C@@H](C(=O)N2CCN(c3ccccc3OC)CC2)CC1=O,-4%,0.36
COc1ccc(NC(=O)C(=O)N[C@H](c2ccccc2OC)c2nccn2C)c(OC)c1,-15%,1.65
O=c1c2ccccc2nnn1C[C@H]1CC[C@H](C(=O)N2CCN(Cc3ccccc3)CC2)CC1,-16%,2.33
CC(C)Cc1cc(C(=O)N2CCN(C)C[C@@H]2c2ccccc2)nc(N)n1,-15%,1.66
Nc1nc(COC(=O)[C@H]2CC(=O)N(Cc3ccccc3Cl)C2)nc(Nc2ccccc2)n1,3%,-0.42

SMILES,% Inhibition,Z score
C[C@@H](CS(C)(=O)=O)N(C)C(=O)C1CC=CC1,0%,0.04
Cc1cc(OCCN2CCCCC2)nn1C,-20%,2.09
C[C@H](NC(=O)N1CCn2cncc2C1)c1cnn(C)c1,-5%,0.84
O=C(NCC1CCCO1)C1Cc2cc(C(F)(F)F)ccc2N2CCN(c3ccccc3)CC12 (configuration not stated),9%,-1.09
Cc1noc2nc(C3CC3)cc(C(=O)N3C(C(=O)O)CC4CCCCC43)c12 (configuration not stated),3%,-0.31
O=C(NCC[C@@H]1CCCC[C@@H]1O)c1ccnc(-n2cccn2)c1,-23%,3.1
CC(C)(C)OC(=O)N[C@H]1CCN(c2ncc(Br)cn2)C1,9%,-0.98
COc1ccc(C(=O)N2C[C@H](O)[C@@H](N3CCCC3)C2)cc1F,-6%,1.22
Cc1ccc(F)cc1C(=O)N1C[C@@H]2c3ccccc3OC[C@]2(CO)C1,-8%,0.94
CC(=O)Nc1ccc([C@]2(O)COc3ccccc3O2)cc1,5%,-0.96
Cc1cccc(OC[C@@H](O)CN2CCN(c3nc(C)ns3)CC2)c1,8%,-0.73
Cc1ccc(-c2noc(-c3ccc(=O)n(Cc4cc(C)ccc4C)c3)n2)cc1,-1%,0.17
O=C(NCC[C@H]1CCc2ccccc2N1)c1cnc2n1CCCCC2,-6%,0.99
COC[C@H]1CC[C@H]1NC(=O)COc1ccc(CO)cc1,-6%,0.85
COc1ccccc1NC(=O)CN1C(=O)NC2(CCCCCCC2)C1=O,-16%,2.07
COc1ccc2c(c1)CCc1c-2n[nH]c1-c1ccc(C(=O)NCCC(c2ccccc2)c2ccccc2)cc1,-9%,1.07
O=C(O)c1cccc(C(=O)N(Cc2ccccc2)CC2CCOCC2)n1,-20%,1.65
CCC1(CC)CCN(C(=O)C2C3CCCCC32)CC1 (configuration not stated),-14%,2.87
COc1ccc(C(=O)N2CC(Cn3cncn3)C2)cc1F,-18%,2.32
CC(C)(C)C(=O)N1CCN(c2cc(N3CCCC3)ncn2)CC1,-11%,1.28
COc1nccc2c(NC(=O)N3CC[C@@](O)(C(N)=O)C3)cccc12,0%,0.02

SMILES,% Inhibition,Z score
O=C1NCCCCCCN(S(=O)(=O)c2cccnc2)[C@H]2C[C@H](c3nc(-c4cccnc4)no3)C[C@@H]12,-6%,0.74
COc1cc(C(=O)NCCNC(=O)c2nc(-c3ccc(C(F)(F)F)cc3)no2)cc(OC)c1OC,-13%,1.68
CCCc1nnc(N2CCC(N(C)CCN(C)C)CC2)s1,-9%,1.42
Cc1nc(N)ccc1-c1cccc(C(=O)N(C)C2CCN(C)CC2)c1,-2%,0.23
CN(C)Cc1cccc(CN(C)Cc2cnc(N3CCCC3)s2)c1,-18%,3.34
Cc1ccc2c(c1)n(Cc1cccc(Cl)c1)c(=O)c1nc(C(=O)Nc3c(C)cccc3C)nn12,-9%,1.03
Cc1c(C(=O)Nc2nnc(C)n2C2CC2)nnn1CCOc1ccc(F)cc1,-1%,0.09
C[C@H]1CN(C(=O)c2ncoc2-c2ccc3c(c2)OCCO3)CCN1,-15%,1.95
CC(C)c1cccc(-c2cc(NCc3ccccn3)nc3[nH]ccc23)n1,-5%,0.74
CCN1C(=O)[C@H](CC(=O)NCc2ccc(Cl)cc2)N(CC)C1=O,-3%,0.6
COc1ccccc1-n1c(=O)n(CC(=O)NC2CCCCC2)c(=O)c2c(C)cc(C)nc21,3%,-0.43
Cc1nn(C)c(C)c1NC(C)C1CCCN(C(=O)OC(C)(C)C)C1 (configuration not stated),0%,0.03
Cc1nn(-c2ccc(Cl)cc2)c(NC(=O)c2ccccc2F)c(-c2ccccc2)c1=O,-4%,0.49
Cc1ccc(-n2cnc3cc(C(=O)N4CCc5ccccc54)ccc32)c(C)c1,0%,0.06
CCc1cc(N2CCN(CCc3ccccc3)C(=O)C2)ncn1,-15%,2
C[C@H](Nc1cnn(CCN(C)C)c1)c1ccc2c(c1)OCCO2,-10%,1.84
Cc1cnn(CC(=O)Nc2c(F)cccc2Oc2ccccc2)c1,-11%,1.56
Cc1cccc(C)c1OCCN(C)S(=O)(=O)c1c(C)noc1C,-5%,0.45
